The other results are listed elsewhere or left out. Sequences were assembled here from the parent chain. Values near 0.05 are background.
B1: TEV protease; numbered along this chain (parent)
chain: MGESLFKGPRDYNPISSSICHLTNESDGHTTSLYGIGFGPFIITNKHLFRRNNGTLVVQSLHGVFKVKDTTTLQQHLVDGRDMIIIRMPKDFPPFPQKLKFREPQREERICLVTTNFQTKSMSSMVSDTSCTFPSGDGIFWKHWIQTKDGQCGSPLVSTRDGFIVGIHSASNFTNTNNYFTSVPKNFMELLTNQEAQQWVSGWRLNADSVLWGGHKVFMVKPEEPFQPVKEATQL

Variants of: B1
Experiment: raw area under fraction-flipped curve 0-4 h after induction (AUC4h, not background-subtracted), DNA-recorder readout of cleavage of the substrate (dimensionless); higher = more cleavage of the substrate by the protease variant
Details: temperature: 34 °C; time window: 0-4 h after rhamnose induction
Protocol: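 In vivo DNA recorder in E. coli TOP10(DE3) ΔrhaA at 34 °C. Each TEVp single-site mutant (parent TEVp 0) is paired with a single-site variant of the 7-mer TEVs (canonical ENLYFQ|S). The substrate sits between flexible linkers in a Bxb1-sfGFP-TEVs-SsrA fusion, so cleavage stabilises Bxb1 and speeds flipping of a recombination array, read by NGS. The value is the raw area under the fraction-flipped curve over 0-4 h after rhamnose induction (AUC4h), with ≥20 reads per time point. It is not background-subtracted; inactive controls average about 0.047.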
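Note: Bxb1 expression induced with 0.2% (w/v) L-rhamnose at OD600 near 0.5, cultures sampled hourly, flipped fraction per protease–substrate barcode pair counted by paired-end Illumina sequencing.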

Row | Variant | area with substrate ENAYFQS | area with substrate ENCYFQS | area with substrate ENGYFQS | area with substrate ENHYFQS | area with substrate ENIYFQS | area with substrate ENKYFQS | area with substrate ENMYFQS | area with substrate ENNYFQS | area with substrate ENQYFQS | area with substrate ENRYFQS | area with substrate ENSYFQS | area with substrate ENVYFQS | area with substrate ENWYFQS | area with substrate ENDYFQS | area with substrate ENEYFQS | area with substrate ENFYFQS | area with substrate ENTYFQS | area with substrate ENYYFQS | area with substrate ENPYFQS
1 | M188A | 0.0619 | 0.0782 | 0.067 | 0.0644 | 0.113 | 0.0671 | 0.0921 | 0.0696 | 0.0497 | 0.0637 | 0.0656 | 0.0705 | 0.0484 | – | – | – | – | – | –
2 | E189F | 0.0642 | 0.0856 | 0.0554 | 0.0612 | – | – | 0.0793 | 0.0797 | 0.0518 | 0.0402 | 0.0564 | – | – | 0.0637 | 0.0643 | 0.0611 | 0.0509 | 0.0597 | –
3 | L190A | 0.0461 | – | – | 0.0592 | 0.139 | 0.067 | 0.0636 | 0.0629 | 0.0556 | – | 0.0682 | 0.0963 | – | 0.0668 | 0.0546 | – | 0.0801 | 0.0556 | 0.0536
4 | L191E | 0.0498 | 0.0538 | 0.0598 | 0.0642 | 0.0548 | – | – | 0.0647 | 0.0534 | 0.0515 | 0.0653 | 0.0765 | – | – | 0.0626 | 0.0676 | 0.0696 | – | 0.0739
5 | L191S | 0.0531 | – | – | – | 0.0521 | 0.0611 | 0.0624 | 0.0308 | 0.0273 | – | 0.0584 | – | – | 0.0513 | – | – | 0.0638 | – | –
6 | N193L | 0.0486 | 0.0605 | – | – | 0.0868 | – | – | 0.0674 | 0.0504 | 0.0701 | – | 0.0642 | – | 0.0612 | – | 0.0577 | – | – | –
7 | Q194Y | 0.0653 | 0.0759 | 0.0719 | – | – | 0.0574 | – | 0.0676 | 0.0516 | 0.0557 | 0.0457 | – | – | 0.0553 | 0.0673 | 0.0511 | 0.072 | – | –
8 | A196S | 0.0505 | 0.0501 | 0.0794 | – | 0.0982 | 0.0596 | – | 0.0683 | 0.0633 | 0.0677 | 0.0658 | 0.0909 | – | 0.081 | 0.066 | 0.0312 | 0.0626 | 0.0789 | 0.0512
9 | Q197M | 0.0535 | – | 0.062 | – | 0.14 | – | 0.092 | – | 0.0096 | – | 0.0558 | 0.086 | – | 0.0626 | 0.0619 | – | 0.0659 | – | 0.0644
10 | Q198H | 0.0479 | – | 0.0691 | – | – | 0.0585 | – | 0.0526 | 0.0527 | 0.0492 | – | – | 0.068 | 0.0644 | – | 0.0561 | 0.0668 | – | –
11 | G202D | 0.0672 | 0.0583 | 0.07 | 0.0522 | 0.0963 | – | – | 0.0839 | 0.0635 | 0.0634 | 0.0631 | 0.0547 | – | – | 0.0666 | 0.0598 | – | – | –
12 | G202P | 0.0385 | 0.0586 | – | 0.0611 | – | 0.149 | 0.0783 | 0.053 | 0.0539 | – | 0.0561 | 0.0676 | – | 0.0664 | 0.0567 | 0.058 | 0.0729 | – | –
13 | G202T | 0.0531 | 0.0412 | – | – | 0.0817 | – | – | – | 0.0707 | 0.0787 | – | – | 0.0636 | 0.0523 | – | – | 0.0548 | – | –
14 | W203I | 0.0566 | 0.0632 | 0.075 | – | – | 0.0639 | – | 0.0569 | 0.0587 | 0.0674 | 0.0661 | – | – | 0.0501 | 0.0897 | – | – | – | 0.0572
15 | R204S | 0.0507 | 0.0662 | 0.0694 | 0.0771 | 0.0816 | – | 0.0851 | 0.0519 | 0.0604 | 0.0582 | 0.0686 | 0.0888 | – | 0.058 | 0.0226 | 0.0686 | 0.0682 | 0.0676 | –
16 | L205K | 0.0526 | 0.0629 | – | – | 0.0649 | – | – | 0.0616 | 0.0505 | 0.0485 | 0.0801 | – | – | – | 0.0712 | – | 0.066 | – | 0.0681

Row | Variant | area with substrate ENAYFQS | area with substrate ENCYFQS | area with substrate ENGYFQS | area with substrate ENHYFQS | area with substrate ENIYFQS | area with substrate ENKYFQS | area with substrate ENMYFQS | area with substrate ENNYFQS | area with substrate ENQYFQS | area with substrate ENRYFQS | area with substrate ENSYFQS | area with substrate ENVYFQS | area with substrate ENWYFQS | area with substrate ENDYFQS | area with substrate ENEYFQS | area with substrate ENFYFQS | area with substrate ENTYFQS | area with substrate ENYYFQS | area with substrate ENPYFQS
17 | A207G | 0.0694 | – | 0.062 | 0.0688 | – | 0.0272 | – | – | 0.0622 | 0.0663 | 0.0491 | – | – | 0.0703 | – | – | 0.0662 | – | –
18 | A207Q | 0.0627 | 0.0555 | – | 0.0475 | – | 0.0594 | – | – | 0.0691 | – | 0.0692 | – | – | – | 0.0623 | 0.0645 | – | – | 0.0588
19 | A207W | 0.0654 | 0.0548 | – | – | 0.0847 | 0.0551 | – | – | 0.058 | 0.0455 | 0.0554 | – | – | 0.0799 | 0.0646 | – | 0.0615 | 0.0501 | 0.062
20 | D208P | 0.0419 | – | 0.0615 | 0.0638 | – | 0.0898 | 0.0301 | 0.0598 | 0.0598 | – | 0.061 | – | – | 0.0663 | 0.0689 | 0.0687 | – | – | –
21 | V210H | 0.0643 | – | 0.0544 | – | 0.0681 | – | 0.0739 | 0.0522 | 0.0535 | 0.0399 | – | 0.075 | – | 0.078 | – | 0.0678 | – | – | –
22 | V210R | 0.0628 | 0.0615 | – | 0.0848 | 0.126 | – | 0.0705 | – | – | 0.0506 | 0.0583 | 0.0516 | – | 0.0647 | 0.0522 | 0.049 | – | – | –
23 | L211A | 0.0481 | – | 0.0572 | – | – | – | 0.0494 | 0.0494 | 0.0601 | – | – | – | – | 0.0626 | 0.0627 | – | – | – | –
24 | L211W | 0.0564 | – | – | – | 0.0998 | – | – | 0.0704 | – | 0.0754 | – | – | 0.0269 | – | 0.0574 | 0.057 | – | – | –
25 | W212C | 0.0643 | – | 0.0667 | 0.0949 | 0.11 | – | 0.056 | – | 0.0648 | 0.0565 | 0.0595 | 0.0635 | – | – | – | 0.0615 | 0.0773 | 0.0556 | –
26 | W212L | 0.0625 | 0.0673 | 0.0538 | 0.0427 | 0.107 | 0.0384 | – | 0.0719 | 0.0636 | 0.0612 | 0.0577 | 0.0794 | 0.0769 | 0.0597 | 0.0664 | 0.0595 | 0.0914 | 0.074 | –
27 | W212P | 0.0809 | – | 0.0615 | – | – | – | – | 0.06 | – | – | 0.0623 | – | – | – | 0.0555 | 0.0576 | 0.0431 | 0.0607 | –
28 | W212R | 0.0545 | 0.0558 | – | 0.0758 | – | 0.0626 | 0.0426 | 0.0534 | 0.0595 | 0.0557 | 0.0649 | 0.0512 | – | 0.0661 | 0.0567 | 0.0595 | – | – | 0.0602
29 | G213V | 0.0602 | 0.0651 | – | – | – | 0.0598 | – | – | 0.0484 | – | – | 0.0636 | – | – | 0.0506 | – | 0.0675 | – | –
30 | G214P | 0.0518 | – | 0.049 | – | – | 0.0629 | – | 0.0589 | 0.0616 | – | 0.0746 | – | – | 0.0548 | 0.0356 | – | – | – | 0.0542
31 | G214R | 0.0599 | – | – | 0.054 | 0.0786 | – | – | 0.0582 | 0.0583 | 0.0471 | 0.0651 | 0.0574 | 0.0528 | – | 0.0588 | 0.0607 | 0.0667 | – | 0.0519

— the supplement of paper PMC12217912
